Results published in PubChem BioAssay AID1030 (National Center for Advancing Translational Sciences (NCATS), 2008).
Screen size: about 220,000 compounds; about 16,000 (7.3%) were called active. Inconclusive means that the source gave no clear call. Such entries were picked first, then a sample of the others. Calls come from the whole dose curve; as a rule, active = well fitted inhibition curve with a large enough effect (not every such curve was filed as active); inconclusive = small, poorly fitted or top-dose-only effect, or another doubt; inactive = no such curve, though single readings can be large or run the other way. Potencies of inconclusive entries are left out as doubtful fits.

Target: Aldehyde dehydrogenase 1A1 (Homo sapiens) (UniProt P00352)
Sequence of UniProt P00352 (P00352 whole entry, looked up): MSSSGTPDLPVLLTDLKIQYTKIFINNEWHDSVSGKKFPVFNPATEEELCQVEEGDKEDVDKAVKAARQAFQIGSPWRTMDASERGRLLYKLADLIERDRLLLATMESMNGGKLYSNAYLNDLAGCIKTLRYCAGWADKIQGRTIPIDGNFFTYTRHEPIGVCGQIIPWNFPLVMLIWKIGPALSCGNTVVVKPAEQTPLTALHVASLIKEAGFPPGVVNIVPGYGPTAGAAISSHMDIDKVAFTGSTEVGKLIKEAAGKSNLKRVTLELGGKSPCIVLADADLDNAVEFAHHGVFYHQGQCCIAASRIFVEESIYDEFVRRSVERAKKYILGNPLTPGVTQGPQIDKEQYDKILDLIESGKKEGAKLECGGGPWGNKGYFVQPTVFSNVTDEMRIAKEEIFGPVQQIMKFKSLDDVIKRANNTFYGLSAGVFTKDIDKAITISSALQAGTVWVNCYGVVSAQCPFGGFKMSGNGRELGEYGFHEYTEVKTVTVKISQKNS
Assay: qHTS Assay for Inhibitors of Aldehyde Dehydrogenase 1 (ALDH1A1);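 for activity, negative = inhibition: plate controls were no enzyme wells and a reference inhibitor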
Conditions: Purified ALDH1A1, NADH fluorescence, propionaldehyde substrate; series mostly up to 75.3 µM; activity, negative = inhibition: at the top concentration
Potency is the fitted concentration of half-maximal effect; tags give direction and shape of the fitted curve.

SMILES	Potency	activity, negative = inhibition
C=CCNC(=O)c1ccc(C(=O)c2ccccc2)cc1	inconclusive [inhibitor, single point]	
O=C(CSc1nnc(-c2cccnc2)n1-c1ccccc1)Nc1ccc2c(c1)OCO2	inconclusive [inhibitor, single point]	
CC(C)NOC(=O)c1ccc(Cl)cc1	inconclusive [inhibitor, single point]	
N#Cc1c(NC(=O)COC(=O)C2CC3C=CC2C3)oc(-c2ccccc2)c1-c1ccccc1 (configuration not stated)	inconclusive [inhibitor, single point]	
CC(C)c1ccc(N2C(=O)CC(Sc3nc4ccccc4o3)C2=O)cc1 (configuration not stated)	active: 0.708 µM	
COc1ccccc1N1CCN(C(=O)c2ccc3c(Cl)c4c(nc3c2)CCCC4)CC1	inconclusive [inhibitor, single point]	
CCOC(=O)C1CCN(C(=O)CCc2c(C)nc3cc(-c4ccc(OC)cc4OC)nn3c2C)CC1	inconclusive [inhibitor, partial curve]	
O=c1[nH]nc(Cc2ccc3ccccc3n2)c2ccccc12		inactive: 8.9%
O=C(CNC(=S)NC(=O)c1ccc(Cl)cc1)c1ccccc1	active: 8.91 µM	
CN(Cc1cnc2nc(N)nc(N)c2n1)c1ccc(C(=O)N[C@H](CCC(=O)O)C(=O)O)cc1		inactive: -4.8% [at 20.9 µM]
COc1cccc([C@@H]2Oc3ccc(Br)cc3C[C@H]2OC(=O)N[C@H]2CCCc3ccccc32)c1		inactive: 1.96%
CCCN1CCN(C(=O)Cn2cnc3ccc(S(=O)(=O)N4CCC(C)CC4)cc3c2=O)CC1		inactive: 9.56%
CCCCc1cc(=O)oc2cc(C)c(CN3CCCC3)c(O)c12	active: 22.4 µM	
Nc1c(Cl)nc(-c2ccccc2)nc1Cl		inactive: -0.661%
CCOC(=O)c1c(-c2ccc(C)o2)csc1NC(=O)CSc1nnc(C)s1	inconclusive [inhibitor, single point]	
Cc1cccc(NC(=S)Nc2ccc(Cl)c(Cl)c2)c1	inconclusive [inhibitor, single point]	
CCC(CC)C(=O)N1c2ccc(F)cc2CCC1C (configuration not stated)		inactive: -4.14%
CC1CCCC(C)N1C(=O)CSc1nc(N)c(-c2ccccc2)c(=O)[nH]1 (configuration not stated)	inconclusive [inhibitor, single point]	
COc1cccc(NC(=O)c2ccccc2-c2nc(-c3ccccc3)no2)c1	inconclusive [inhibitor, partial curve]	
CCCCn1c(N)c(N(CC)C(=O)CSc2nnnn2-c2cc(C)ccc2C)c(=O)[nH]c1=O	active: 11.2 µM	
Cn1c(-c2ccccc2O)cc2ccccc21	inconclusive [inhibitor, single point]	
Cc1ccc(N2C(=O)C3ON(c4ccccc4)C(c4ccncc4)C3C2=O)c(C)c1 (configuration not stated)	inconclusive [inhibitor, single point]	
CCCCCCCCCCS(=O)(=O)N/N=C/c1ccc(O)cc1	active: 12.6 µM	
COc1ccccc1Oc1nc(-c2cccnc2)nc2ccccc12	active: 20 µM	

SMILES	Potency	activity, negative = inhibition
CCC(C)NC(=O)C1CCN(S(=O)(=O)c2ccc(Br)s2)CC1 (configuration not stated)	inconclusive [inhibitor, single point]	
CC(=Nc1ccccc1)C1=C(O)COC1=O	active: 5.62 µM	
Cc1ccccc1NC(=O)CSCCN1C(=O)c2ccccc2C1=O	inconclusive [inhibitor, single point]	
Clc1ccc(N2CCN(c3ncnc4c3oc3ccccc34)CC2)cc1	inconclusive [inhibitor, single point]	
CS(=O)(=O)N1CCN(c2ccccc2NC(=O)c2cccnc2)CC1	inconclusive [inhibitor, partial curve]	
O=C(CS(=O)(=O)c1cn(Cc2cccc(F)c2)c2ccccc12)N1CCCCC1	inconclusive [inhibitor, single point]	
COCCn1cnc2cc(C)c(C)cc21		inactive: 3.7%
Cc1sc2nc3ccc(N4CCCC4)nn3c(=O)c2c1C	inconclusive [inhibitor, partial curve]	
O=C(COC(=O)C1=COCCO1)Nc1ccc2c(c1)OCO2	inconclusive [inhibitor, partial curve]	
O=C(O)c1ccc(-n2c(-c3ccc(Br)cc3)n[nH]c2=S)cc1	active: 28.2 µM	
CCOC(=O)c1sc(NC(=O)c2cccc(S(=O)(=O)N(CC)CC)c2)cc1C		inactive: 12.1%
CCOc1ccc2[nH]c(=O)c(CN(CCN3CCCC3)C(=S)Nc3ccccc3OC)cc2c1	inconclusive [inhibitor, single point]	
Cc1cc(C(=O)CSc2nc3ccc(Cl)cc3[nH]2)c(C)n1CC1CCCO1 (configuration not stated)		inactive: -5.4%
COc1ccc2cc(C(=O)NCc3ccco3)c(=O)oc2c1	inconclusive [inhibitor, partial curve]	
CCCCSc1nc(C)[nH]c1[N+](=O)[O-]		inactive: 1.19%
O=C(CNC(=O)c1ccccc1)OC(C(=O)Nc1cc(C(F)(F)F)ccc1Cl)c1ccccc1 (configuration not stated)	inconclusive [inhibitor, single point]	
COc1ccc(CNC(=O)C2CCCN(c3nccc(C)n3)C2)cc1 (configuration not stated)	inconclusive [inhibitor, single point]	
O=C(C1CCCN(Cc2ccncc2)C1)N1CCc2ccccc2C1 (configuration not stated)	inconclusive [inhibitor, single point]	
CCC(C)(C)n1nnnc1C(c1cc2ccc(OC)cc2[nH]c1=O)N1CCCCC1 (configuration not stated)	inconclusive [inhibitor, single point]	
Cc1nc(N2CCOCC2)sc1C(=O)NN	inconclusive [inhibitor, full curve]	
CCN(CC)c1ccc(N=Cc2ccc([N+](=O)[O-])o2)cc1	inconclusive [inhibitor, full curve]	
S=C(c1ccc(-c2ccccc2)o1)N1CCCCC1	active: 3.55 µM	
C=CCNC(=O)/C(C#N)=C/c1c(N2CC(C)OC(C)C2)nc2ccccn2c1=O (configuration not stated)	inconclusive [inhibitor, partial curve]	
CCN(CC)C(=O)Oc1ccc2c(=O)c(-c3ccc(OC)cc3)coc2c1	inconclusive [inhibitor, single point]	

SMILES	Potency	activity, negative = inhibition
COc1cc(NC(=O)c2ccccc2)c(OC)cc1NC(=O)CN1CCCCC1	inconclusive [inhibitor, single point]	
CCOc1cc(/C=C2/C(=N)N3OC(C)=CC3=NC2=O)ccc1OCCOc1ccccc1	inconclusive [inhibitor, partial curve]	
O=C(/C=C/c1ccco1)NCC(=O)N/N=C/c1ccc([N+](=O)[O-])cc1	inconclusive [inhibitor, single point]	
CCOC(=O)CSCC(=O)Nc1cc(C)ccc1C	inconclusive [inhibitor, single point]	
C/C(=N\NC(=O)c1c(Cl)c(C)nn1C)c1cccc(NC(=O)COc2ccccc2)c1	inconclusive [inhibitor, partial curve]	
COc1ccccc1NS(=O)(=O)c1cccc(C(=O)N/N=C2\CC(=O)CC(C)(C)C2)c1		inactive: -3.2%
COCCNC(=O)C1Cc2c(ccc3ccccc23)O1 (configuration not stated)	inconclusive [inhibitor, single point]	
CCn1c(-c2ccccc2)csc1=Nc1ccc(S(=O)(=O)O)cc1		inactive: 10.2%
CC(C)Cn1nnnc1S(=O)(=O)Cc1cccc(C#N)c1	active: 3.55 µM	
Cc1ccc2cc(CN(Cc3nnnn3C3CCCC3)C3CCCCC3)c(=O)[nH]c2c1C	active: 7.94 µM	
Cn1c(=O)c2c(ncn2CC(=O)N/N=C/c2cn[nH]c2-c2ccc(F)cc2)n(C)c1=O		inactive: 9.19%
CCOC(=O)C1=C(C)N=C2SC(CC)C(=O)N2C1c1cccc(F)c1 (configuration not stated)	inconclusive [inhibitor, single point]	
CC1=C(C(=O)OCc2ccc3c(c2)OCO3)C(c2ccccc2OCc2ccccc2)NC(=O)N1 (configuration not stated)		inactive: -2.9%
COc1cc(OC)cc(-c2cc3nc(C)cc(N4CCN(C(=O)c5ccco5)CC4)n3n2)c1	inconclusive [inhibitor, single point]	
CN(C)c1ncc2nc(-c3ccccc3)c(=O)n(Cc3ccc(F)cc3)c2n1	inconclusive [inhibitor, partial curve]	
Cc1cc(=O)[nH]c(SCCCOc2ccccc2Cl)n1	inconclusive [inhibitor, single point]	
CSc1ccc(/C=N/Nc2ccc(Cl)c(C(=O)O)c2)cc1	inconclusive [inhibitor, single point]	
NS(=O)(=O)c1ccc(N=Nc2ncccc2O)cc1		inactive: 7.65% [at 13.5 µM]
COc1ccc(NC(=O)Cn2c(=O)sc3ccccc32)c(OC)c1		inactive: 5.38%
CC(C)(C)c1ccc(OC(=O)c2ccc3nsnc3c2)cc1		inactive: -18.4%
Cc1cc(C)n2nc(SCc3ncc(-c4ccccc4)o3)nc2n1	inconclusive [inhibitor, single point]	
N#Cc1c(NCCN)nc(NCc2ccccc2)c2c1CCN(Cc1ccccc1)C2	inconclusive [inhibitor, partial curve]	
Cc1cc(C)n(-c2ccc(C(=O)OCC(=O)c3ccc(Br)s3)cc2)n1	active: 22.4 µM	
C=CCOc1ccc(CN(C)CC(=O)Nc2ccc3c(c2)CCC3)cc1	inconclusive [inhibitor, single point]	
